Experimental data published in the RNAGym collection of RNA variant scans (doi:10.7554/elife.90254).
The source gives no read counts; variants with many changes may rest on few reads.

B1: OR4K15 (parent)
chain: GUUAACGGUCAUAGGCCAUGGAAACUAGGAGCACCAUUUCGCUGCCAGUGAAGAAAUGAACAAAGAAAAUCUGGGCCAGGCAGGCAUCAAAAGAAAUAGUCUUGCGCUCAACCAGAAAGUCUGUAAUCAUUUUAAGGGUA

Variants of: B1
Test: self-cleavage, relative activity (ratio to wild type); higher = more cleavage; in vitro, sequencing; the parent is a self-cleaving ribozyme
For GUUAACGGUCAUAGGCCAUGGAAACUAGGAGCACCAUUUCGCUGCCAGUGAAGAAAUGAACAAAGAAAACCUGGGCCAGGCAGGCAUCAAAAGAAAUAGUCUCGCGCUCAACCAGAAAGUCUGUAAUCACUUUAAGGGUA, the self-cleavage was 0.01.
GUUAACGGUCAUAGGCCAUGGAAACUAGGAGCACCAUUUCGCUGCCAGUGAAGAAAUGAACAAAGAAAAUCUGGGCCAGGCAGGCAUCAAAAGAGAUAGUCUUGCGCUCGACCAGGAAGUCCGUAAUCAUUUUAAGGGUA gave a self-cleavage of 0.05.
Work on GUUAACGGUCAUAGGCCACGGAAACUAGGAGCACCAUUUCGCUGCCAGUGAAGAAAUGAACAAAGAAAAUCCGGGCCAGGCAGGCAUCAGGAGAAAUAGUCUUGCGCUCAACCAGAAAGUCUGCAAUCAUUUUAAGGGUA yielded a self-cleavage of 0.1.
For GUUAACGGUCAUAGGCCAUGGAAACUAGGAGCACCAUUUCGCUGCCAGCGAAGAAAUGAACAAAGGAAAUCUGGGCCAGGCAGGCAUCAAAAGAAAUAGUCUUGCGCUCAACCAGAAAGUCUGUAAUCAAUUUAAGGGUA, the self-cleavage was 0.71.
GUUAACGGUCAUAGGCCAUGGAAACUAGGAGCACCAUUACGCUGCCAGUGAAGAAAUGAACAAAGAAAAUCUGGGCCAGGCAGGCAUCAAAAGAAAUAGUCUUGCACCCAACCAGAAAGUCUGUAAUCAUUUUAAGGGUA gave a self-cleavage of 0.
GUUAACGGUCAUAGGCCAUGGAAACUAGGAGCACCAUUUCGCUGCCAGUGAAGAAAUGAUCAAAGAAAAUCUGGGCCAGGCAGGCAUCAAAAGAAAUAGUCCUGCGCUCAACCAGAAUGUCUGUAAUCAUUUUAAGGGUA showed a self-cleavage of 1.91.
GUUAACGGUCAUAGGCCAUGGAAACCAGGAGCACCAUUUCGCUGCCAGUGAAGAAAUGAACAAAGAAAAUCAGGGCCAGGCAGGCAUCAAAAGAAAUAGUCUUGCGCUCAACCAGAAAGCCUGUAAUCAUUUUAAGGGUA showed a self-cleavage of 0.11.
Work on GUUAACGGUCAUAGGCCAUGGAACCUAGGAGCACCACUUCGCUGCCAGUGGAGAAAUGAACAAAGAAAAUCUGGGCCAGGCAGGCAUCAAAAGAAAUAGUCUUGCGCUCAACCAGAAAGUCUGUGAUCAUUUUAAGGGUA yielded a self-cleavage of 0.46.
With GUUAACGGUCUUAGGCCAUGGAAACUAGGAGCACCAUUUCGCUGCCAGUGAAGGAAUGAACAAAGAAAGUCUGGGCCAGGCAGGCAUCAAAAGAAAUAGUCUUGCGCUCAACCUGAAAGUCUGUAAUCAUUUUAAGGGUA the self-cleavage was 0.27.
GCUAACGGUCACAGGCCAUGGAAACUAGGAGCGCCAUUUCGCUGCCAGUGAAGAAAUGAACAAGGAAAAUCUGGGCCAGGCAGGCAUCAAAAGAAAUAGUCUUGCGCUCAACCAGAAAGUCUGUAAUCACUUUACGGGUA gave a self-cleavage of 0.28.
Work on GUUAACGGUCAUAGGCCAUGGAAACUAGGAGCACCAUUUCGCUGCCAGUGGAGAAAUGAACAAAGAAAAUCUGGGCCAGGCAGGCAUCAAGAGGAAUAGUCUUGCGCUCAACCAGAAAGUCUGUAAUCAUUUUAAGGGUA yielded a self-cleavage of 1.41.
For GUUAACGGUCAUAGGCCAUGGAAACUAGGAGCACCAUUUCGCUGCCAGUGAGGAAAUGAACAAAGAAAAUCUGGGCCCGGCAGGCAUCAAAAGAAAUAGUCUUGCGCUCAACCAGAAAGUCUGUAAUCAUUUUAUGGGUA, the self-cleavage was 0.17.
Variant GUUAACGGUCAUAGGCCAUGGAAAGUAGGAGCACCAUUUCGCUGCCAGUGAAGAAAUGAACAAAGAAAAUCUGGGCCAGGCAGGCAUCAAAAGAGAUAGUCUUGCGCUCAACCAGAAAGACUGUAAUCAUUUUAAGGGUA has a self-cleavage of 1.4.
With GUUAACGGUCAUGGGCCACGGAAACUAGGAGCACCAUUUCGCUGCCAGUGAAGAAAUGAACAAAGAAAAUCUGGGCCAGGCGGGCAUCAAAAGAGAUAGUCUUGCGCUCAGCCAGAAAGUCUGUAAUCAUUUUAAGGGUA the self-cleavage was 0.13.
Variant GUUAGCGGUCAUAGGCCAUGGAAACUAGGAGCACCAUUUCGCUGCCAGUGAAGAAAUGAACAAAGAAAAUCUGGUCCUGGCAGGCAUCAAAAGAAAUAGUCUUGCGCUCAACCAGGAAGUCUGUAAUCAUUUUAAGGGUA has a self-cleavage of 0.08.
GUUAACGGUCAGAGGCCAUGGAAACUAGGAGCACCAUUUCGCUGCCUGUGAAGAAAUGAACUAAGAAAAUCUGGGCCAGGCAGGCAUCAGAAGAAAUAGUCUUGCGCUCAACCAGAUAGUCUGUAAUCAUUUUAAGGGAA gave a self-cleavage of 0.51.
For GUUAACGGUCAUAGGCCAUGGAAACUAGGAGCACCAUUUCGCAGCCAGUGAAGAAAUGAACAAAGAAAAUCUGGGCCAGGCAGGCUUCAAAAGAAAUAGUCUUGCGCUCAACCAGAAAGUCCGUAAUCAUUCUAAGGGUA, the self-cleavage was 0.79.
GUUAACGGUCAUAGGCCAUGGAAACUAGGAGCACCAUUUCGUUGCCAGUGAAGAAAUGAACAAAGAAAAUCUGGGCCAGGCAGGCAUCAAAAGAAUUAGUCUUGCGCCCAACCAGAAAGUCUGUAAUCAUUUUAAGGGUA showed a self-cleavage of 0.01.
Variant GUUAACGGUCAUAGGCCAUGGAAACUAGGAGCACCAUUUCGCUGCCAGUGAAGAAAUGAACAAAGAAAAUCUGGGCCAGGCAGGCAUCGGAAGAGAUAGUCUUGCGCUCAACCAGAAAGUCUGUAAUCAUUUUAAGGGUA has a self-cleavage of 1.4.
Variant GUUAACGGUCAUAGGCCAUGGAGACUAGGAGCACCAUUUCGCUGCCAGUGAAGAAAUGAACAAAGAAAAUCGGUGCCAGGCAGGCAUCAAAAGAAAUAGUCUUGCGCUCAACCAGGAAGUCUGUAAUCAUUUUAAGCGUA has a self-cleavage of 0.13.
GUUAACGGCCAUAGGCCUUGGAAACUAGGAGCACCAUUUCGCUGCCAGUGAAGAAAUGAACAAAGAAAAUCUGGGCCAGGCAGGCAUCAAAAGAAAUAGUCUUGCGCUCAACCGGAAAGUCUGUAAUCAUUUUAAGGGUA gave a self-cleavage of 0.12.
GUUAACGGUCUUAGGCCAUGGAAACUAGGAGCACCAUUUCGCUACCAGUGAAGAAAUGAACAAAGAAAAACUGGGCCAGGCAGGCAUCAAAAGAAAUAGUCUUGCGCUCAACCAGAACGUCUGUAAUCAUUUUAAGGGUA gave a self-cleavage of 0.39.
GUUAACGGUCAUAGGCCAUGGAAACUAGGAGCACCAUUUCGCUGCCAGUGAAGGAAUGAACAGAGAAAAUCUGGGCCGGGCAGGCAUCAAAAGAAAUAGUCUUGCGCUCAACCAGAAAGUCUGUAAUCAUUUUAAGGGUA gave a self-cleavage of 0.33.
For GUUAGCGGUCAUAGGCCAUGGAAGCUAGGAGCACCAUUUCGCUGCCAGUGAAGAAAUGAACAAAGAAGAUCUGGGCCAGGCAGGCAUCAAAAGAAAUAGUCUUGCGCUCAACCAGGAAGUCUGUAAUCAUUUUAGGGGUA, the self-cleavage was 0.91.
GUUAACGGUCAUAGGCCAUGGAGACUAGGAGCACCUUUUCGCUGCCAGUGAAGAAAUGAACAAAGAAAAUCUGGGCCAGGCAGGCAUCAAAAGAAAUAGUCUUGGGCUCAACCAGAAAGUCUGUAAUCAUUUUAAGGGUA showed a self-cleavage of 0.06.
Work on GUUAACGGUCAUAGGCCAUGGAAACUAGGAGCACCAUUUCGCUGCCAGUGAAGAAAUGAACAAAGAAAAUCUGGGCCAGGCAGGCACCAAAAGAAAUAGUCCUGCGCUCAACCUGAAAGUCUGUAAUCAUUUUAAGGGUA yielded a self-cleavage of 0.21.
For GUUAACGGUCACAGGCCAUGGAAACUAGGAGCACCAUUUCGCUGCCAGUGAAAUAAUGAACAAAGAAAAUCUGGGCCAGGCAGGCAUCAAAAGAAAUAGUCUUGCGCUCAACCAGUAAGUCUGUAAUCAUUUUAAGGGUA, the self-cleavage was 0.1.
For GUUAACGGUCAUAGGCCAUGGAAACUAGGAGCACCAUUUCGCUGCCAGUGAAGAAAUGGACAAAGAAAAUCUGGGCCGGGCAGGCAUCAAGAGAAAUAGUCUUGCGCUCAACCAGAAAGUCUGUAAUCAUUUUAAGGGUA, the self-cleavage was 0.11.
GUUAGCGGUCAUGGGCCAUGGAAACUAGGAGCACCAUUUCGCUGCCAGUGAAGAAAUGAACAAAGAAGGUCUGGGCCAGGCAGGCAUCAAAAGAAAUAGUCUUGCGCUCAACCAGAAAGUCUGUAAUCAUUUUAAGGGUA gave a self-cleavage of 0.86.
With GUUAACGGUCAUAAGCCGUGGAAACUAGGAGCACCAUUUCGCUGCCAGUGAAGAAAUGAGCCAAGAAAAUCUGGGCCAGGCAGGCAUCAAAAGAAAUAGUCCUGCGCUCAACCAGAAAGUCUGUAAUCAUUUUAAGGGUA the self-cleavage was 0.83.
In the case of GUUAACGGUCAUAGGCCAUGGAAACUAGGAGCACCAUUUCGCUGCCAGUGAAGAAAUGAACAAAGAAAAUCUGGGCCAGGCAGGCAUCAAGAGAAAUAGUCUUGCGCUCGACCAGAAAGUCUGUAAUCAUCCUAAGGGUA, the self-cleavage is reported as 0.1.
For GUUAACGGUCAUAGGCCAUGGAAACUAGGAGCACCAUUUCGCUGCCAGUGAAGAAAUGAACAAAGAAAAUCUGGCCCAGGCAGGCAUCAAAAGAAAUAGCCUUGCGCUCAACCAGAAAGUCUGUAAUCGUUUUAAGGGUA, the self-cleavage was 0.08.
GUUAACGGUCAUAGGCCAUGGAAACUAGGAGCGCCAUUUCGCUGCCAGCGAAGAAAUGAGCAAAGAAAAUCUGGGCCAGGCAGGCAUCAAAAGGAAUAGUCUUGCGCUCAACCAGAAAGUCUGUAAUCAUUUUAAGGGUA gave a self-cleavage of 0.64.
With GUUAACGGUCAUAGGCCAUGGAAACUAGGAGCACCAUUUCGCAGCCAGUGAAGAAAUGAACAAAGAAAAUCUGGGCCAGGCAGGCAUCAAAAGAAAUAAUCUUGCGCUCAACCAGAAAGUCUGUAAUCGUUUUAAGGGUA the self-cleavage was 0.22.
In the case of GUUAACGGUCAUAGGCCAUGGAAACUAGGAGCACCAUUUCGCUGCCAGUGAAGAAAUGAGCAAAGAAAAUCCGGGCCAGGCAGGCACCAAAUGAAAUAGUCUUGCGCUCAACCACAAAGUCUGUAAUCAUUUUAAGGGUA, the self-cleavage is reported as 0.02.
For GUUAACGGUCAUAGGCCAUGGAAACUAGGAGCACCAUUUCGCUGCCAGUGAAGAAAUGAACAAAGAAAAUCUGGGCCAGGCAGGCAUCAAAAGAUUUAGUCUUGCGCCCAACCAGAAAGUCUGUAAUCAUUUUAAGGGUA, the self-cleavage was 0.01.
GUUAACGGCCACAGGCCAUGGAAACUAGGAGCACCAUUUCGCUGCCUGUGAAGAAAUGAACAAAGAAAAUCUGGGCCAGGCAGGCAUCAAAAGAAAUAGUCUUGCGCUCAACCAGAAAGACCGUAAUCAUUUUAAGGGUA gave a self-cleavage of 0.56.
Work on GUUAACGGUCAUAGGCCAUGGAAACUAGGAGCACCAUUUCGCUGCCAGUGAAGAAAUGAACAAAGAAAAUCUGGGCCAGACAGGCAUCAAAAGAAAUAGUCUAGCGCUCAACCAGAAAGUCCGUAAUCAUUUUAAGGGUA yielded a self-cleavage of 0.02.
Work on GUUAACGGUCAUAGGCCAUGGAAACUAGGAGCACCAUUUCGCUGCCAGUGAAGAAAUGAAUAAAGAAAAUCUGGGCCAGGCAGGCCUCAAAAGAAAUAGUCUUGCGCUCAACCAGAAAGUCUGUAACCAUUUUAAGGGUA yielded a self-cleavage of 0.5.
GUUAACGGUCAUAGGCCAUGGAAACUAGGAGCACCAUUUCGCUGCCAGUGAAGUAACGAACAAAGAAAACCUGGGCCAGGCAGGCAUCGAAAGAAAUAGUCCUGCGCUCAACCAGAAAGUCUGUAAUCAUCUUAAGGGUA showed a self-cleavage of 1.14.
In the case of GUUAACGGUCAUAGGCCAUGGAGACUAGGAGCACCACUUCGCUGCCAGUGAAGAAAUGAACAAAGAAAAUCUGGGCCAGGCAGGCAUCAAAAGAAGUAGUCUUGCGCUCAACCAGAAAGUCUGUAAUCAUUUUAAGGGUA, the self-cleavage is reported as 1.42.
